According to PubChem BioAssay AID488969 (Vanderbilt High Throughput Screening Facility, 2010):
Whole data set: some 110,000 compounds, median “z-score” near -0.1, cut for the highest 2% near 2. This is one part of the list.

Target: Metabotropic glutamate receptor 8 (Rattus norvegicus) (UniProt P70579)
Test: mGluR8 Gi/Go-coupled signaling modulation – cell-based, rat, thallium flux, HTS, primary screen (AID 488969)
Conditions: HEK293 rat mGluR8, GIRK (G protein-gated inwardly rectifying potassium channel) thallium flux, FluoZin2; at 10 µM; stronger effect = higher value; submaximal glutamate (EC20) added with thallium

Chain of UniProt P70579 (P70579 whole entry, looked up): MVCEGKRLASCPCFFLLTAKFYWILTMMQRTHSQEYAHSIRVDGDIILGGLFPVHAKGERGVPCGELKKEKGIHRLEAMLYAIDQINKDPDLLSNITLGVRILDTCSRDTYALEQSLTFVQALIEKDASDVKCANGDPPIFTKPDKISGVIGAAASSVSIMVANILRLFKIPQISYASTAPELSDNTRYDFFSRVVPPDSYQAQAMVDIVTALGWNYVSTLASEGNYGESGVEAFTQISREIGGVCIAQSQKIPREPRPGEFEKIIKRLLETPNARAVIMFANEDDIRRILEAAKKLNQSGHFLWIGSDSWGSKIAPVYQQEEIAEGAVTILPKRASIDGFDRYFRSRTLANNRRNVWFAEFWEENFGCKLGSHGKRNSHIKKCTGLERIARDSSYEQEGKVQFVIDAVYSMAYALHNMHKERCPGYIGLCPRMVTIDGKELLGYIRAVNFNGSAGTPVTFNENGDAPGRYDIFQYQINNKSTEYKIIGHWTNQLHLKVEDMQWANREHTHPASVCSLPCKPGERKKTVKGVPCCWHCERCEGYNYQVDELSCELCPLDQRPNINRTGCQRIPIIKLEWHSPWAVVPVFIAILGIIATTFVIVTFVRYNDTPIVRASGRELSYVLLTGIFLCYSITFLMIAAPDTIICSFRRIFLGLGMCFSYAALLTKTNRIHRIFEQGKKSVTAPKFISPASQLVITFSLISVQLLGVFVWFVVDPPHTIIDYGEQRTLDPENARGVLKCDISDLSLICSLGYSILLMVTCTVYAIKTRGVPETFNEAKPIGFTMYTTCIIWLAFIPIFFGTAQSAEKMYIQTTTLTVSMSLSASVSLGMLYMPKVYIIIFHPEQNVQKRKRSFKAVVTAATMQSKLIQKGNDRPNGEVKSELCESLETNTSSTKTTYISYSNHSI

SMILES	z-score
Cc1ccc(S(=O)(=O)NCC(C)NS(C)(=O)=O)cc1 (configuration not stated)	-0.186
CCC(C)(C)C(=O)Nc1ccc(OC)cc1[N+](=O)[O-]	-0.0898
COC(=O)c1ccccc1NC(=O)CSc1nnc(CNS(=O)(=O)c2ccc(C)cc2)n1C	-1.17
CCc1nc(NCC2CCCO2)c(C#N)c2c1COC(C)(C)C2 (configuration not stated)	-0.743
Cc1ccc(C2(c3ccc(C)cc3)NC(=O)N(Cc3c(C)noc3C)C2=O)cc1	0.501
CC(C)c1ccc(NC(=S)NCc2cccs2)cc1	-0.117
O=C(CCC(=O)N(c1ccc(F)cc1)C(C(=O)NC1CCCC1)c1ccncc1)Nc1cccnc1 (configuration not stated)	0.0842
O/N=C(/CCc1ccccc1)C1(O)CCCCC1	0.131
COc1ccccc1C/C(N)=N/OC(=O)COc1ccc(C)cc1C	-0.34
CCNc1nc(NCC)nc(Nn2cnnc2)n1	-0.325
COC(=O)CCN(c1ccccc1)S(=O)(=O)c1ccc(OC)cc1	-0.159
Cn1c(=O)cc(-c2ccccc2)c2ccccc21	-0.748
O=C(CCC(=O)NNC(=O)COc1ccccc1)NCc1ccccc1	-0.0104
CS(=O)(=O)c1ccc2nc(NC(=O)c3ccco3)sc2c1	0.66
O=C(Nc1ccc(-c2nc3ccccc3s2)cc1)C1=COCCO1	-0.24
O=S(=O)(c1cc(Cl)ccc1Cl)N1CCCC1	-0.172
CC1CCN(CC(=O)N2CC(=O)Nc3ccccc32)CC1	-0.177
N#CCCn1c(SCC(=O)N2CCN(S(=O)(=O)c3ccccc3)CC2)nc2ccccc21	-1.08
CC(=O)Nc1c(O)nc(SCC(=O)Nc2sc3c(c2C#N)CCCCCC3)[nH]c1=O	-0.257

SMILES	z-score
O=S(=O)(Cc1ccccc1)N1CCN(Cc2ccccc2)CC1	-0.122
CC1CCCC(C)N1CCNC(=O)C1CCN(S(=O)(=O)N2CCCCC2)CC1 (configuration not stated)	-0.337
CC(C)(C)OC(=O)N/N=C/c1cc(N=Nc2ccccc2)ccc1O	-0.136
CCCNC(=O)N[C@@H](Cc1ccccc1)C(=O)OC	0.0758
CCCC(=O)NC(Nc1ccc(S(=O)(=O)Nc2cc(C)on2)cc1)(C(F)(F)F)C(F)(F)F	-0.0511
Cc1ccccc1NC(=S)NC1CC2CCC(C1)N2Cc1ccco1 (configuration not stated)	0.0979
COCCn1nnnc1C(c1ccc2ncccc2c1)N1CCN(c2ccccc2F)CC1 (configuration not stated)	-0.355
COc1cc(-c2nc3ccccn3c2/N=C/c2ccccc2)ccc1O	-0.248
COc1ccc(OCC(O)CNc2ccc(Br)cc2)cc1 (configuration not stated)	-0.364
O=[N+]([O-])c1ccc(C2CCCC/C2=N/OCc2ccccc2F)c([N+](=O)[O-])c1 (configuration not stated)	0.27
COc1ccc(Br)cc1C(=O)Nc1ccc(NC(=O)c2ccco2)cc1	0.122
CC1(C)Cc2c(sc(/N=C/N3CCCCC3)c2C#N)C(C)(C)N1	0.519
Cc1c(C#N)c2ccccc2n1CC(=O)NCc1ccccc1	-0.11
COc1ccc(C(=O)NCC(=O)O)cc1	-0.395
COc1cc(/C=N/N2CCN(C3c4ccccc4-c4ccccc43)CC2)ccc1O	-0.203
COc1ccccc1Nc1nc2ccccc2n1C	-0.233
CC1CCCCC1NCC(=O)Nc1ccccc1-c1ccccc1 (configuration not stated)	0.416
CCc1nc(N)c(C#N)c(-c2cccc3ccccc23)c1C	0.197
NC(=O)C1CCN(C(=O)OCc2ccccc2)CC1	-0.192

SMILES	z-score
Cc1cc2occ(CC(=O)Nc3nccs3)c2cc1C(C)C	-0.304
CN(C)c1nc2n(c(=S)n1)CCS2	0.264
CCOc1ccc(N2C(=O)CC(S/C(N)=N/N=C/c3cccs3)C2=O)cc1 (configuration not stated)	0.12
Cc1ccc(Sc2ccc(/C=N/O)cc2[N+](=O)[O-])cc1	-0.7
Cc1ccc2cc3cc(C(=O)NCCN4CCOCC4)oc3nc2c1	0.715
COc1ccc(C(=O)NCCSCc2ccco2)cc1OC	-0.85
CCOc1ccc(-c2nnn(CC(=O)c3ccc4c(c3)OCCO4)n2)cc1	0.498
Cc1ccc(S(=O)(=O)n2nc(C)cc2C)cc1	0.0429
COc1cccc(-n2cnc3sc(C)c(C)c3c2=O)c1	-0.425
CCC(=O)N1C(C(=O)NCc2ccc(OC)cc2)CSC1c1ccc(OC)cc1 (configuration not stated)	-0.585
CCN1CCN(c2nc3ccccc3nc2C(C#N)S(=O)(=O)c2ccc(C)c(C)c2)CC1 (configuration not stated)	-0.433
Cc1ccc(S(=O)(=O)N(c2cccc(C)c2)C2CCS(=O)(=O)C2)cc1 (configuration not stated)	-0.0872
CCc1nnc(NC(=O)CSc2nnc(-c3ccc(S(=O)(=O)N(CC)CC)cc3)n2CC)s1	-0.154
COc1ccc(OC)c(-c2cc(C(=O)N3CCN(c4ncccn4)CC3)c3ccccc3n2)c1	-2.06
Cc1ccc(NC(=O)c2cc(N3C(=O)C4CC=CCC4C3=O)ccc2N2CCCCC2)cc1 (configuration not stated)	-0.0875
CCc1ccc(C2C(C#N)=C(N)Oc3n[nH]c(CC(=O)OC)c32)cc1 (configuration not stated)	-0.139
O=C(CCCn1c(SCC(=O)NCC2CCCO2)nc2ccccc2c1=O)NCc1ccccc1 (configuration not stated)	-0.11
CC(C)NC(=O)Cn1c(=O)c2c(ncn2Cc2ccccc2)n(Cc2ccccc2)c1=O	-0.566
COc1ccc(CNC(=O)CCSCc2ccccc2Cl)c(OC)c1	-0.407
